# Assay results: PMC6919601, “Identification of Plasmodium dipeptidyl aminopeptidase allosteric inhibitors by high throughput screening” (PLoS ONE, 2019)
# Out of some 110,000 compounds screened, about 230 (0.21%) showed an effect of 50% or more. The list shows a part of the results.
# Target: DPAP1 (Plasmodium falciparum, UniProt Q8IIJ9)
# Assay: primary screen, percent inhibition; read by cleavage of a fluorogenic dipeptide substrate; higher = more effect of the substance
# Set-up: species or system P. falciparum D10 trophozoite lysates; single well
# 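Also: 30 min substrate incubation versus DMSO and 10 µM JCP410 controls.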
# DPAP1, sequence (Q8IIJ9 whole entry, looked up): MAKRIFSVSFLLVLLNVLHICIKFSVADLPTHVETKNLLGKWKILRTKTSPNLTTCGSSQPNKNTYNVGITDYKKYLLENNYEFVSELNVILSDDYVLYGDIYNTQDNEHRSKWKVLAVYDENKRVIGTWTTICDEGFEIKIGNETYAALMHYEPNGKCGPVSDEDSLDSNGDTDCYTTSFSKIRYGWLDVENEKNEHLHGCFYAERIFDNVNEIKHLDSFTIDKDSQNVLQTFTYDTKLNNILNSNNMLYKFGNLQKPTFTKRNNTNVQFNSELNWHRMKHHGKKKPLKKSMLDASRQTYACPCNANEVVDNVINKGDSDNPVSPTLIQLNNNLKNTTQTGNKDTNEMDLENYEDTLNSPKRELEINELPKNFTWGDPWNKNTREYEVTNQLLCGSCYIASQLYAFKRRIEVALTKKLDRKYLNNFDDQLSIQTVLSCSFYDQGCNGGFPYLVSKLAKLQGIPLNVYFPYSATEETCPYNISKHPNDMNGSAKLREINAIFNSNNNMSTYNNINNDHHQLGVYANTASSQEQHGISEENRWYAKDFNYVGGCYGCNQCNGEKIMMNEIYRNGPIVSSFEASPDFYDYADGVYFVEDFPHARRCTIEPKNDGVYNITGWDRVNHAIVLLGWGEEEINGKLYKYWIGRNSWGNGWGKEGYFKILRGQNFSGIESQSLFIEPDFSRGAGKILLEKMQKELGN
row,Compound,% Inhibition @ 10 uM [%]
1,COc1ccccc1-c1nc2c3c(C)c(C)oc3ncn2n1,-1.28
2,Cc1onc(-c2ccccc2Cl)c1C(=O)N(Cc1ccccc1)C(C)C,-5.52
3,CC12CN(C(=O)c3ccccc3Cl)CC(C)(CN(C(=O)c3ccccc3Cl)C1)C2=O,1.75
4,CCOC(=O)NC(C)(C)COC(=O)NC,0.058
5,Cc1cc(C)nc(SCC(=O)Nc2ncc(Cc3ccc(F)cc3)s2)n1,3.81
6,COc1cc2c(cc1OC)C(c1ccccc1C(F)(F)F)N(C)CC2 (stereo not shown),4.55
7,Fc1c(F)c(F)c2c(cnn2-c2ccccc2)c1F,-2.19
8,Cc1c(C(c2cc(Cl)ccc2O)c2c(C)n(C)n(-c3ccccc3)c2=O)c(=O)n(-c2ccccc2)n1C,7.99
9,CCCc1[nH]nc2c1C(c1cc(OC)c(OC)c(OC)c1)C(C#N)=C(N)O2 (stereo not shown),-0.661
10,COCCCN1C(=O)c2c(c3n(c2-c2ccccc2)Cc2ccccc2-3)C1=O,-1.03
11,Cc1c(Cl)c(C(F)(F)F)nn1CC(=O)N1CCc2ccccc21,2.51
12,Cc1ccc(SCC(=O)NC2CCS(=O)(=O)C2)cc1 (stereo not shown),3.81
13,Cn1c(=O)c2ncn(CC(=O)Nc3ccc(N4CCN(Cc5ccccc5)CC4)cc3)c2n(C)c1=O,-7.09
14,CSc1ccccc1NC(=O)C1CCN(S(C)(=O)=O)CC1,-1.84
15,COc1cc2c(C(=O)NCCC(C)C)cn(CC(C)C)c(=O)c2cc1OC,4.33
16,O=C(CSc1nnc(-c2cccnc2)n1-c1ccccc1)N1CCOCC1,2.12
17,COc1ccc(-c2nc3scc(CCNC(=O)c4cccc(C(F)(F)F)c4)n3n2)cc1,-1.74
18,CC(C)(C)OC(=O)Nc1c(F)ccc2c(-c3ccccc3)noc12,0.777
19,COC(=O)c1c(NC(=O)c2cc(C)oc2C)sc2c1-c1ccccc1CC2,5.32
20,Cc1ccc(NC(=O)c2ccccc2C(=O)O)cc1Cl,-0.185
21,O=C(Nc1nsc(-c2ccccc2)n1)c1ccc2ncsc2c1,-6.79
22,CCN1CCC(NCc2cccc(F)c2)CC1,-7.18
23,CCCCn1ccc(=O)c2c(C(F)(F)F)nccc21,3.34
24,CCN1CCN(Cc2nc3c(c(=O)n(C)c(=O)n3C)n2CCCO)CC1,-1.43
25,Cc1ccc(S(=O)(=O)Nc2ccc(S(=O)(=O)c3ccc(N)cc3)cc2)cc1,0.661
26,O=C(O)Cc1ccccc1Sc1ccccc1Cl,-1.91
27,O=C(CCc1nc(-c2ccccc2F)no1)NCCCN1CCCC1,1.86
28,CN1C(=C2C(=O)NC(=S)NC2=O)Sc2ccccc21,2.16
